# Measurements from ChEMBL document CHEMBL4888484, “Replenishing the malaria drug discovery pipeline: Screening and hit evaluation of the MMV Hit Generation Library 1 (HGL1) against asexual blood stage Plasmodium falciparum ,using a nano luciferase reporter read-out” (2022).
# In all, about 150,000 compounds went through this assay and about 540 (0.36%) showed an effect of 50% or more. This is one part of the list.
# System: Plasmodium falciparum
# Experiment: Primary screen in NF54 nanoGlo assay, in single point, at 2uM, 72h; a lower Z score goes with more inhibition
# Assay type: functional, Erythrocyte
# Conditions: timepoint 72 hour
Compound,% Inhibition,Z score
CC1(S(=O)(=O)N2CCN(Cc3cncs3)CC2)CC1,-11%,1.08
CC(=O)N1CC(C(=O)NCc2ccccc2Cl)C1,1%,-0.18
CCOc1cccc(CNC(=O)c2ccc(Oc3nccnc3N3CCCCC3)cc2)c1,-5%,0.9
CCc1nnc(CNC(=O)[C@H]2CCCN(Cc3ccco3)C2)s1,1%,-0.11
C[C@H](NCc1csc(N)n1)c1ccc(N2CCCC2=O)cc1,8%,-0.88
O=C(NCc1ccnc(OC2CCC2)c1)c1c[nH]c2cccc(F)c12,-11%,1.39
CC(C)(C)c1cc(NC(=O)C2CN(C(=O)c3cnccn3)C2)on1,-14%,2.21
CCN(CC)C(=O)Cc1c(F)cccc1Cl,-6%,1.15
COCCc1ccc2oc(NCc3cnn(C(C)(C)C)c3)nc2c1,-6%,0.73
O=C1NS(=O)(=O)c2cccnc2N1c1cccc(Cl)c1,-12%,1.39
CC1CCCCC1NC(=O)NC1CC(=O)N(c2ccc3c(c2)OCCO3)C1 (stereo unspecified),18%,-2.54
Cc1nnc(NC(=O)c2nnn(-c3nc(C)c(C)s3)c2C)s1,-6%,1.17
Cc1cc(C(F)(F)Cl)n(-c2nc(-c3ccco3)cc(C(F)(F)F)n2)n1,-33%,3.86
C=C(C)CN(C)C(=O)Nc1ccc(Br)c(C)n1,8%,-1.04
CCc1n[nH]c2c1CN(CCN1C[C@@H]3CC[C@H]1C3)CC2,-14%,1.23
CC(C)C(NC(=O)NC(c1cccs1)C(C)C)c1cccs1 (stereo unspecified),2%,-0.3
O=C(Nc1nncs1)C1CCN(S(=O)(=O)c2ccc(Cl)cc2)CC1,-17%,3.46
O=C(Nc1cccc(CNc2ncc(Cl)cn2)c1)NC1CC1,-6%,0.71
COC(=O)[C@H]1CCCCN1CC(=O)NCc1ccccc1C,15%,-2.04
Cc1ccc(NC(=O)C2[C@@H]3C=C[C@]4(O3)C(C(=O)NC3CCCC(C)C3C)N(C(C)CCc3ccccc3)C(=O)[C@H]24)cc1Cl (stereo partly specified),12%,-1.88
CN1N=C(C(=O)N(C)c2nccs2)CCC1=O,-5%,1.02
COCC(=O)N[C@H](C(=O)N1CCC(c2ccco2)C1)C(C)C (stereo partly specified),1%,-0.14
Cc1nnc2ccc(-c3cccc(NC(=O)C4CCN(S(C)(=O)=O)CC4)c3)nn12,-2%,0.34
Cc1ccnn1-c1ccccc1NC(=O)Cc1cccs1,-3%,0.47
CCCc1cc(C(=O)N2CCC(Cc3ccccc3)CC2)[nH]n1,20%,-2.53
N#Cc1cccc(C(=O)N2CCC3(CC2)N(Cc2ccccc2)C(=O)CS3(=O)=O)c1,-7%,1.11
COc1ccc(C2=NN(C(=O)CN(CCN3CCOCC3)C(=O)c3cccc(F)c3)[C@H](c3ccc(C)cc3)C2)cc1,-12%,2.04

Compound,% Inhibition,Z score
Cc1oc2ncnc(N3CCC(C(=O)Nc4ccc(Br)cc4)CC3)c2c1C,-6%,0.71
CN(CC1CCCCO1)c1ncc(Cl)c(N(C)CC2CCCCO2)n1 (stereo unspecified),-6%,0.7
COc1ccccc1CN1C(=O)O[C@H]2CN(Cc3nccn3C)C[C@H]21,-8%,1.14
Cc1cccc(CN2CCn3nc(CCC(=O)N4CCOCC4)cc3C2)c1,5%,-0.67
CNC(=O)N(C)C1CCC(F)(F)CC1,-12%,1.16
CNC(=O)[C@@H]1CN(Cc2ccc(-c3cccc(Cl)c3)s2)CCO1,0%,0.05
CC#CCN1C(=O)N[C@@](CCc2ccccc2)(C2CCN(Cc3ccccn3)CC2)C1=O,-2%,0.3
Cc1n[nH]c(C)c1CCCNC(=O)[C@H]1CCOc2ccccc2C1,0%,0
CCC(O)(C#CCN1CCOCC1)CC,7%,-1.33
c1ccc2c(c1)nc(N1CC(c3ncc(C4CC4)cn3)C1)c1cncn12,-16%,2.8
C[C@H](NC(=O)C1(N2CCCCC2)CCCCC1)c1nncn1C1CCCC1,-6%,0.86
CCCc1nc(CN(C)c2nccnc2OC)no1,-8%,1.04
O=C(c1cccn2c(=O)[nH]nc12)N1C[C@H](c2ccccc2)C2(CCC2)C1,-4%,0.45
O=C(NC[C@H](Cc1ccc2ccccc2c1)C(=O)O)c1ccccc1Cn1cccn1,-2%,0.15
C[C@@H](C(=O)N1Cc2ccc(Br)cc2C1)S(N)(=O)=O,2%,-0.43
CCC(C)n1ncc(NC(=O)N2CCC(c3ccccc3)C2C)c1C (stereo unspecified),-4%,0.47
CCCNC(=O)CNC(=O)c1cc2n(n1)CCCN(Cc1ccccc1)C2=O,-18%,2.61
O=C1CC(CC(=O)N2CCc3ccccc3[C@H]2c2ccccc2)C(=O)N1 (stereo partly specified),-14%,2.22
O=C(NCC1CC1)c1cn(C2CN(S(=O)(=O)c3cccc4cccnc34)C2)nn1,-10%,1.84
C[C@H](O)CN(C(=O)CCc1ccncc1)C1CC1,1%,-0.12
C[C@H](NC(=O)N(C)CCCN1CCCCCC1)c1ccc2[nH]ccc2c1,-3%,0.47
CC(C)(C)c1cnnn1-c1ccc(NC(=O)c2cccs2)cc1,-13%,2.08
O=C(N[C@H]1CCCc2cnccc21)c1cnc2n1CCC2,22%,-2.83
Cc1cn2cc(C(=O)N[C@@H]3COCC[C@@H]3OCc3cscn3)ccc2n1,-6%,1.03
CC(C)N1C(=O)[C@@H]2C(C(=O)Nc3ccc(Cl)c(Cl)c3)[C@]3(C)C=C[C@]2(O3)C1C(=O)NC1CCCCC1 (stereo partly specified),-5%,0.61
Cc1ccc2nc(-c3cncnc3)cc(C(=O)N3CCC[C@H]3c3nc(C)no3)c2c1,-2%,0.32
